From the supplement of paper PMC7125110
± gives the standard error. Variants at the floor of the assay are shown more often than the library holds them.

B1: glmS ribozyme (parent)
chain: AUAAAAGCGCCAGAACUACAGAAAUGUAGUUGACGAGGAGGAGGUUUAUCGAAUUUUCGGCGGAUGCCUCCAAA

Variants of: B1
Test: self-cleavage kobs at 2500 uM GlcN6P; higher = faster cleavage; RNA array
Conditions: with glucosamine-6-phosphate
Method in brief: (§1)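 Weighted Michaelis–Menten fits across concentrations supplied kcat and KM, based on kobs from one- or two-exponential decay fits to normalised per-tile medians. The data came from barcoded ribozyme variants transcribed in situ by E. coli RNA polymerase on sequenced MiSeq chips and tracked at 37 °C by a hybridised Cy3 probe. Glucosamine-6-phosphate (40 μM to 10 mM) in HEPES/KCl/Mg(OAc)2 buffer was flowed in.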

G35U G44A C50A U56C G59C G60C G66C and G35U G51U C58A G59C C71G cannot be ordered by “self-cleavage kobs at 2500 uM GlcN6P” value: less than 1e-05 s⁻¹ for the first, less than 1e-05 s⁻¹ for the second.

G35U G60C C68U and G35U U57G C70U cannot be ordered by “self-cleavage kobs at 2500 uM GlcN6P” value: less than 1e-05 s⁻¹ for the first, less than 1e-05 s⁻¹ for the second.

A36C A64C C71G and A36C C50U G59A cannot be ordered by “self-cleavage kobs at 2500 uM GlcN6P” value: less than 1e-05 s⁻¹ for the first, less than 1e-05 s⁻¹ for the second.

A36C G37A A39C C50U A53C and A36C G40A G43A C50G U69A cannot be ordered by “self-cleavage kobs at 2500 uM GlcN6P” value: less than 1e-05 s⁻¹ for the first, less than 1e-05 s⁻¹ for the second.

A36C G43C C50G C68A and A36C G44U G59A G60U cannot be ordered by “self-cleavage kobs at 2500 uM GlcN6P” value: less than 1e-05 s⁻¹ for the first, less than 1e-05 s⁻¹ for the second.

A36C G59A and A36C G60C A64U U65C cannot be ordered by “self-cleavage kobs at 2500 uM GlcN6P” value: less than 1e-05 s⁻¹ for the first, less than 1e-05 s⁻¹ for the second.

A36C G63A U65A and A36C U55A U65G cannot be ordered by “self-cleavage kobs at 2500 uM GlcN6P” value: less than 1e-05 s⁻¹ for the first, less than 1e-05 s⁻¹ for the second.

A36C U57C G59C C61A U65C and A36G A53C U54G C71U cannot be ordered by “self-cleavage kobs at 2500 uM GlcN6P” value: less than 1e-05 s⁻¹ for the first, less than 1e-05 s⁻¹ for the second.

Going from A36G C50G C67G to A36G G38U U55A, the “self-cleavage kobs at 2500 uM GlcN6P” value falls from 0.000124 ± 5.6e-05 s⁻¹ to less than 1e-05 s⁻¹.

A36G G40C C61G A64G and A36G G40C G60C cannot be ordered by “self-cleavage kobs at 2500 uM GlcN6P” value: less than 1e-05 s⁻¹ for the first, less than 1e-05 s⁻¹ for the second.

A36G G41U U49A G51U A64G and A36G U45G C67A cannot be ordered by “self-cleavage kobs at 2500 uM GlcN6P” value: less than 1e-05 s⁻¹ for the first, less than 1e-05 s⁻¹ for the second.

A36G U46A C70A and A36G U47A G51U A53U C58G cannot be ordered by “self-cleavage kobs at 2500 uM GlcN6P” value: less than 1e-05 s⁻¹ for the first, less than 1e-05 s⁻¹ for the second.

A36U G41U A42C and A36U G44C U46G cannot be ordered by “self-cleavage kobs at 2500 uM GlcN6P” value: less than 1e-05 s⁻¹ for the first, less than 1e-05 s⁻¹ for the second.

A36U G44U C58G and A36U G51C C70G cannot be ordered by “self-cleavage kobs at 2500 uM GlcN6P” value: less than 1e-05 s⁻¹ for the first, less than 1e-05 s⁻¹ for the second.

A36U G63A and A36U U45G U56A A64G G66C cannot be ordered by “self-cleavage kobs at 2500 uM GlcN6P” value: less than 1e-05 s⁻¹ for the first, less than 1e-05 s⁻¹ for the second.

A36U U57A C68U and G37A A42C U46C U55C cannot be ordered by “self-cleavage kobs at 2500 uM GlcN6P” value: less than 1e-05 s⁻¹ for the first, less than 1e-05 s⁻¹ for the second.

G37A C58A U65A C67U and G37A C68A C70G cannot be ordered by “self-cleavage kobs at 2500 uM GlcN6P” value: less than 1e-05 s⁻¹ for the first, less than 1e-05 s⁻¹ for the second.

Compared with G37A G40A U56G, G37A G41C U47G A48G is lower in “self-cleavage kobs at 2500 uM GlcN6P” value: 5.62e-05 ± 1.8e-05 s⁻¹ for the first, less than 1e-05 s⁻¹ for the second.

G37A G41U C67U and G37A G43U G62U cannot be ordered by “self-cleavage kobs at 2500 uM GlcN6P” value: less than 1e-05 s⁻¹ for the first, less than 1e-05 s⁻¹ for the second.

G37A G44C G63C and G37A G44U U55C U57G cannot be ordered by “self-cleavage kobs at 2500 uM GlcN6P” value: less than 1e-05 s⁻¹ for the first, less than 1e-05 s⁻¹ for the second.

G37A G62C C70A and G37A U49A A52G cannot be ordered by “self-cleavage kobs at 2500 uM GlcN6P” value: less than 1e-05 s⁻¹ for the first, less than 1e-05 s⁻¹ for the second.

G37C A42C U69A and G37C A64U C68G cannot be ordered by “self-cleavage kobs at 2500 uM GlcN6P” value: less than 1e-05 s⁻¹ for the first, less than 1e-05 s⁻¹ for the second.

G37C G38C A42U and G37C G40A G44C cannot be ordered by “self-cleavage kobs at 2500 uM GlcN6P” value: less than 1e-05 s⁻¹ for the first, less than 1e-05 s⁻¹ for the second.

G37C G43U U49A A52U C70U and G37C G44A C58U C70G cannot be ordered by “self-cleavage kobs at 2500 uM GlcN6P” value: less than 1e-05 s⁻¹ for the first, less than 1e-05 s⁻¹ for the second.

G37C U54G G63C and G37U A39C U47C cannot be ordered by “self-cleavage kobs at 2500 uM GlcN6P” value: less than 1e-05 s⁻¹ for the first, less than 1e-05 s⁻¹ for the second.

G37U A42G A52U G59C and G37U A52U U54C cannot be ordered by “self-cleavage kobs at 2500 uM GlcN6P” value: less than 1e-05 s⁻¹ for the first, less than 1e-05 s⁻¹ for the second.

G37U G38A U46C and G37U G44C C68G cannot be ordered by “self-cleavage kobs at 2500 uM GlcN6P” value: less than 1e-05 s⁻¹ for the first, less than 1e-05 s⁻¹ for the second.

First: G37U G51C A52U
Second: G37U G66U C68G C71G
The “self-cleavage kobs at 2500 uM GlcN6P” value of the first is lower: less than 1e-05 s⁻¹ for the first, 4.28e-05 ± 2e-05 s⁻¹ for the second.

G37U U46G A52U U57A and G37U U55C G59A cannot be ordered by “self-cleavage kobs at 2500 uM GlcN6P” value: less than 1e-05 s⁻¹ for the first, less than 1e-05 s⁻¹ for the second.

G37U U57C C58A G62U and G38A G43U U65C cannot be ordered by “self-cleavage kobs at 2500 uM GlcN6P” value: less than 1e-05 s⁻¹ for the first, less than 1e-05 s⁻¹ for the second.

G38A U56G and G38C G41U U46G G60U C61U U69A cannot be ordered by “self-cleavage kobs at 2500 uM GlcN6P” value: less than 1e-05 s⁻¹ for the first, less than 1e-05 s⁻¹ for the second.

G38C G43C U56G C67A U69A and G38C G44A A52G cannot be ordered by “self-cleavage kobs at 2500 uM GlcN6P” value: less than 1e-05 s⁻¹ for the first, less than 1e-05 s⁻¹ for the second.

G38C G44C and G38C G51A U57C cannot be ordered by “self-cleavage kobs at 2500 uM GlcN6P” value: less than 1e-05 s⁻¹ for the first, less than 1e-05 s⁻¹ for the second.

G38C U46A C50G and G38U A39U G60U cannot be ordered by “self-cleavage kobs at 2500 uM GlcN6P” value: less than 1e-05 s⁻¹ for the first, less than 1e-05 s⁻¹ for the second.

G38U C50U and G38U G40U C70A cannot be ordered by “self-cleavage kobs at 2500 uM GlcN6P” value: less than 1e-05 s⁻¹ for the first, less than 1e-05 s⁻¹ for the second.

G38U G43A G44A and G38U G43U A64G cannot be ordered by “self-cleavage kobs at 2500 uM GlcN6P” value: less than 1e-05 s⁻¹ for the first, less than 1e-05 s⁻¹ for the second.

First: G38U G51U U55G U65G
Second: G38U U55A G62A U69G
The “self-cleavage kobs at 2500 uM GlcN6P” value of the first is lower: less than 1e-05 s⁻¹ for the first, 0.0012 ± 0.00058 s⁻¹ for the second.

A39C G59A G63U and A39C U49G C68G cannot be ordered by “self-cleavage kobs at 2500 uM GlcN6P” value: less than 1e-05 s⁻¹ for the first, less than 1e-05 s⁻¹ for the second.

A39C U55C G62A C70U and A39G A42G G51A C70U C71U cannot be ordered by “self-cleavage kobs at 2500 uM GlcN6P” value: less than 1e-05 s⁻¹ for the first, less than 1e-05 s⁻¹ for the second.

Variants of: B1
Test: self-cleavage kobs at 10000 uM GlcN6P; higher = faster cleavage; RNA array
Conditions: with glucosamine-6-phosphate
Method in brief: as §1

A36C G37A A39C C50U A53C and A36C G59A cannot be ordered by “self-cleavage kobs at 10000 uM GlcN6P” value: less than 1e-05 s⁻¹ for the first, less than 1e-05 s⁻¹ for the second.

A36C U57C G59C C61A U65C and A36G G41U U49A G51U A64G cannot be ordered by “self-cleavage kobs at 10000 uM GlcN6P” value: less than 1e-05 s⁻¹ for the first, less than 1e-05 s⁻¹ for the second.

G37A G41U C67U and G37A U49A A52G cannot be ordered by “self-cleavage kobs at 10000 uM GlcN6P” value: less than 1e-05 s⁻¹ for the first, less than 1e-05 s⁻¹ for the second.

G37C A64U C68G and G37C G43U U49A A52U C70U cannot be ordered by “self-cleavage kobs at 10000 uM GlcN6P” value: less than 1e-05 s⁻¹ for the first, less than 1e-05 s⁻¹ for the second.

G37U A42G A52U G59C and G38C G44C cannot be ordered by “self-cleavage kobs at 10000 uM GlcN6P” value: less than 1e-05 s⁻¹ for the first, less than 1e-05 s⁻¹ for the second.

In the case of G38C G51A U57C, the “self-cleavage kobs at 10000 uM GlcN6P” value is reported as less than 1e-05 s⁻¹.
